Results as given in PubChem BioAssay (Tox21).
Inconclusive results, whose numbers are uncertain, are shown with a selection of clear calls. For some assays here: Where the call is inconclusive, the potency comes from a doubtful curve fit. Activity calls are given as the source filed them. Unless noted, calls come from the whole dose curve; as a rule, active = well fitted curve in the direction sought with a large enough effect in the repeat runs; inconclusive = weak or mixed curves; inactive = no such curve, though single readings can be large; an effect the other way counts as inactive or inconclusive.

What was measured:
[1] = qHTS assay for identifying genotoxic compounds that show differential cytotoxicity against isogenic chicken DT40 cell lines with known DNA damage response pathways - Rad54/Ku70 mutant cell line (AID 743015); details: DT40 Rad54/Ku70 mutant viability, CellTiter-Glo, 40 h; activity change, negative = cytotoxicity: at 66.8 µM (top of the series) unless noted; note: % is set by controls: 0 for no effect and ±100 for the full control effect; nearly all actives have a fitted effect of over 60% in size
[2] = qHTS assay to identify small molecule antagonists of the thyroid receptor (TR) signaling pathway - cell viability counter screen (AID 743064); details: GH3.TRE-Luc viability, CellTiter-Fluor, 24 h; activity change, negative = cytotoxic: at 70.3 µM (top of the series) unless noted; note: % is set by controls: 0 for no effect and ±100 for the full control effect; nearly all actives have a fitted effect of over 50% in size
Method in brief: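 Fluorescence from CellTiter-Fluor, added after 23.5 h exposure at 37 °C, reported viability of GH3.TRE-Luc cells co-treated with compound and 1 nM T3. Measured in the same wells as the luciferase TR readout.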

[3] = target: Estrogen receptor (Homo sapiens) (UniProt P03372); assay: qHTS assay to identify small molecule antagonists of the estrogen receptor alpha (ER-alpha) signaling pathway (AID 743069; active = well fitted curve in the direction sought with a large enough effect in the signal ratio in the repeat runs, not every such curve was filed as active; inconclusive = weak or mixed curves, or effect the other way; inactive = no such curve, though single readings can be large or run the other way; the % refers to the signal ratio; note: % is set by controls: 0 for no effect and ±100 for the full control effect); details: HEK293 ER-alpha-UAS-bla, beta-lactamase ratio, antagonist mode; activity, negative = inhibition: at 69.4 µM (top of the series) unless noted
Method in brief: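 Antagonist mode: compounds in DMSO were co-added with 17beta-estradiol to ER-alpha-bla HEK293 cells (2% charcoal-stripped serum) and left 18 h at 37C. Reporter inhibition was measured as FRET fluorescence after 2 h LiveBLAzer substrate at room temperature.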

[4] = qHTS assay to identify aromatase inhibitors - cell viability counter screen (AID 743084); details: MCF-7 aro ERE viability, CellTiter-Fluor, 24 h; activity change, negative = cytotoxicity: at 70.3 µM (top of the series) unless noted;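 note: cells stimulated with testosterone during compound exposure; potency is the fitted concentration of half-maximal effect; nearly all actives have a fitted effect of over 55% in size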
[5] = target: Peroxisome proliferator-activated receptor gamma (Homo sapiens) (UniProt P37231); assay: qHTS assay to identify small molecule antagonists of the peroxisome proliferator-activated receptor gamma (PPARg) signaling pathway (AID 743191; calls by dose curve; note: % is set by controls: 0 for no effect and ±100 for the full control effect; nearly all actives have a fitted effect of over 30% in size); details: HEK293H PPARg-UAS-bla, beta-lactamase ratio, antagonist, 17 h; ratio activity, negative = inhibition: at 62.6 µM (top of the series) unless noted
Method in brief: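 Beta-lactamase reporter under UAS control in HEK293H PPARg-bla cells; compound treatment 17 h at 37C. Read-out: fluorescence intensity after 1 h room-temperature incubation with LiveBLAzer B/G FRET substrate.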

[6] = qHTS assay for small molecule agonists of the antioxidant response element (ARE) signaling pathway (AID 743202; active = well fitted activation curve with a large enough effect in the signal ratio in the repeat runs, not every such curve was filed as active; inconclusive = weak or mixed curves, or effect the other way; inactive = no such curve, though single readings can be large or run the other way; the % refers to the signal ratio; note: potency is the fitted concentration of half-maximal effect); details: HepG2 ARE-bla reporter, beta-lactamase FRET, 16 h; activation: at 73.3 µM (top of the series) unless noted
Method in brief: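 After 16 hours of compound treatment at 37 C, HepG2 cells with a stably integrated ARE-driven beta-lactamase reporter were loaded 2 hours at room temperature with LiveBLAzer B/G FRET substrate and fluorescence intensity measured.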

[7] = target: Vitamin D3 receptor (Homo sapiens) (UniProt P11473); assay: qHTS assay to identify small molecule antagonists of the vitamin D receptor (VDR) signaling pathway (AID 743223; active = well fitted inhibition curve with a large enough effect in the signal ratio in the repeat runs, not every such curve was filed as active; inconclusive = weak or mixed curves, or effect the other way; inactive = no such curve, though single readings can be large or run the other way; the % refers to the signal ratio; note: % is set by controls: 0 for no effect and ±100 for the full control effect); details: VDR-UAS-bla HEK293T, beta-lactamase FRET ratio, 16 h; activity change, negative = inhibition: at 61 µM (top of the series) unless noted
Method in brief: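 Antagonist mode uses 1alpha,25-dihydroxyvitamin D3 at 3 nM final as stimulus. VDR-bla cells receive compounds in DMSO, incubate 16 h at 37C, then a beta-lactamase FRET substrate for 2 h at room temperature before fluorescence measurement.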

[8] = qHTS assay to identify small molecule antagonists of the estrogen related receptor (ERR) signaling pathway from Tox21 library - cell viability counter screen (AID 1224834); note: potency is the fitted concentration of half-maximal effect; nearly all actives have a fitted effect of over 30% in size
Method in brief: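 Compounds in DMSO were pinned onto ERR cells that had been incubated for 6 h, and the plates were held at 37 C for 17.5 h. CellTiter-Fluor reagent was then added and fluorescence was measured after 30 min.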

[9] = target: Thyrotropin receptor (Homo sapiens) (UniProt P16473); assay: qHTS assay to identify small molecule agonists of the thyroid stimulating hormone receptor (TSHR) signaling pathway (AID 1224843; calls by dose curve; note: potency is the fitted concentration of half-maximal effect; nearly all actives have a fitted effect of over 45% in size); details: TSHR-HEK293 cells, cAMP HTRF, agonist mode, 30 min; activation: at 92.4 µM (top of the series) unless noted
Method in brief: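 Agonist activity read as cAMP rise via d2/cryptate HTRF competition, 1 h room-temperature detection, in HEK293 cells expressing TSHR. Fifteen-point titrations, each run in triplicate, with a 30 min room-temperature incubation beforehand.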

[10] = qHTS assay to identify small molecule agonists of H2AX - cell viability counter screen (AID 1224847; calls by dose curve; note: top concentration of the series differs between compounds; % is set by controls: 0 for no effect and ±100 for the full control effect; nearly all actives have a fitted effect of over 30% in size)
Method in brief: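 Cells plated first: CHO-K1, 1000 per well in 10% FBS medium, incubated overnight at 37C. Then 15-point compound titration added (final DMSO 0.76%) for 3 hr. Finally CellTiter-Glo added and luminescence read.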

[11] = target: Androgen receptor (Homo sapiens) (UniProt P10275); assay: qHTS assay to identify small molecule antagonists of the androgen receptor (AR) signaling pathway using the MDA cell line in the presence of 0.5 nM R1881 (AID 1259243); note: % is set by controls: 0 for no effect and ±100 for the full control effect; nearly all actives have a fitted effect of over 50% in size
Method in brief: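 Antagonist mode quantitative HTS in MDA-kb2 MMTV-luciferase cells, agonist R1881 at 0.5 nM final, 16 hr exposure at 37C and 0% CO2, luminescent detection.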

[12] = qHTS assay to identify small molecule agonists of the sonic hedgehog signaling (Shh) pathway - cell viability counter screen (AID 1259366); note: nearly all actives have a fitted effect of over 50% in size; note: potency is the fitted concentration of half-maximal effect
Method in brief: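 Cytotoxicity counter screen run in the same wells as the Shh reporter assay. NIH/3T3 cells carrying a Gli1 response element–driven luciferase were treated with DMSO-dissolved compounds for 24hr, and live-cell protease activity was measured with CellTiter-Fluor.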

[13] = qHTS assay to identify small molecule antagonists of the sonic hedgehog signaling (Shh) pathway - cell viability counter screen (AID 1259367); note: potency is the fitted concentration of half-maximal effect; nearly all actives have a fitted effect of over 55% in size
Method in brief: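 Viability was read by CellTiter-Fluor fluorescence in the same wells, reagent added 23 hr into compound treatment and incubated 1 hr at 37C. The 3T3 Gli1-Luc reporter cells (2,000/well) received conditioned medium after compound and ran 24 hr.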

[14] = qHTS assay to identify small molecule agonists of the androgen receptor (AR) signaling pathway in the presence of an antagonist - cell viability counter screen (AID 1259379); note: nearly all actives have a fitted effect of over 25% in size; note: potency is the fitted concentration of half-maximal effect;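 for activity change, negative = cytotoxicity: MDA-kb2 human breast cancer cells carrying an MMTV luciferase reporter; % is set by controls: 0 for no effect and ±100 for the full control effect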
Method in brief: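 Nilutamide-containing (3.0uM final) MDA-kb2 cultures, 3,000 cells/well, were treated with compounds across 15 concentrations. After 16 hr at 37C with no CO2, cell viability was determined by CellTiter-Fluor fluorescence in the luciferase assay wells.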

[15] = qHTS assay to identify small molecule agonists of the estrogen receptor alpha (ER-alpha) signaling pathway in the presence of an antagonist - cell viability counter screen (AID 1259386);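 note: potency is the fitted concentration of half-maximal effect; cells exposed to compounds for 22 h at 37 °C before the viability read; nearly all actives have a fitted effect of over 30% in size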
Method in brief: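 In this counter screen, compound effects on VM7Luc4E2 viability were tested in the presence of the antagonist ICI-182,780 at 10.0nM final. Compounds were dosed at 15 concentrations, exposure lasted 22hr, and the CellTiter-Fluor signal was read.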

[16] = target: Progesterone receptor (Homo sapiens) (UniProt P06401); assay: qHTS assay to identify small molecule antagonists of the progesterone receptor (PR) signaling pathway (AID 1346795; active = well fitted inhibition curve with a large enough effect in the signal ratio in the repeat runs, not every such curve was filed as active; inconclusive = weak or mixed curves; the % refers to the signal ratio; note: % is set by controls: 0 for no effect and ±100 for the full control effect); details: PR-UAS-bla HEK293T, beta-lactamase FRET ratio, 16 h; activity change, negative = inhibition: at 92.4 µM (top of the series) unless noted
Method in brief: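 Read-out is fluorescence from the LiveBLAzer B/G FRET substrate, cleaved by a UAS-controlled beta-lactamase in PR-UAS-bla HEK293T cells after 16 hr exposure to compound plus 1 nM promegestone (final), followed by 2 hr at room temperature.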

[17] = target: Thyrotropin-releasing hormone receptor (Homo sapiens) (UniProt P34981); assay: qHTS assay to identify small molecule antagonists of the thyrotropin-releasing hormone receptor (TRHR) signaling pathway (AID 1346877; active = well fitted inhibition curve with a large enough effect in the repeat runs, not every such curve was filed as active; inconclusive = weak or mixed curves; note: potency is the fitted concentration of half-maximal effect)
Method in brief: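 Kinetic fluorescence (3 min, 1 s resolution) following stimulation with TRH at 1 nM final; HEK293 cells bearing human TRHR; 5 min compound preincubation at RT; concentration-response over 15 points, triplicates.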

[18] = qHTS assay to identify small molecule antagonists of the TGF-beta/Smad signaling pathway (AID 1346924; active = well fitted inhibition curve with a large enough effect in the signal ratio in the repeat runs, not every such curve was filed as active; inconclusive = weak or mixed curves; the % refers to the signal ratio); details: SBE-bla HEK293T, TGF-beta/Smad reporter, beta-lactamase ratio; activity, negative = inhibition: at 76.8 µM (top of the series) unless noted
Method in brief: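 Read-out was FRET-substrate fluorescence (405 nm excitation; 460 and 530 nm emission) after 2 h at room temperature. Before that, cells carrying a Smad-binding-element beta-lactamase reporter in HEK 293T had been stimulated 5 h at 37 C with TGF-beta1 (0.25 ng/mL addition solution) in the presence of test compound.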

[19] = Caspase-3/7 induction in CHO-K1 cells by small molecules, qHTS cell viability counter screen (AID 1346979); note: potency is the fitted concentration of half-maximal effect; nearly all actives have a fitted effect of over 35% in size
Method in brief: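 Cells (CHO-K1, wild type) are plated at 1,500 per well and incubated 5hr. Test compounds in DMSO are then pinned in, followed by 16hr at 37C and 5% CO2. Viability is read by CellTiter-Fluor fluorescence after 1hr.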

[20] = Caspase-3/7 induction in HepG2 cells by small molecules, qHTS cell viability counter screen (AID 1346981)
Method in brief: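 In this quantitative HTS counter screen, compounds delivered in DMSO were left on unmodified HepG2 cells for 16 hr at 37 C. Viability was then determined fluorometrically with CellTiter-Fluor, in parallel with caspase-3/7 induction in the same wells.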

[21] = target: Cytochrome P450 2C19 (Homo sapiens) (UniProt P33261); assay: Cytochrome P450 Family 2 Subfamily C Member 19 (CYP2C19) small molecule antagonists: luciferase reporter qHTS assay (AID 1671197); note: % is set by controls: 0 for no effect and ±100 for the full control effect; nearly all actives have a fitted effect of over 65% in size
Method in brief: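 Inhibition of CYP2C19 was scored from loss of luminescence in a P450-Glo proluciferin substrate assay, NADPH-started and run 1 h at 37C, with ketoconazole as positive control.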

[22] = target: Cytochrome P450 3A4 (Homo sapiens) (UniProt P08684); assay: Cytochrome P450 Family 3 Subfamily A Member 4 (CYP3A4) small molecule antagonists: luciferase reporter qHTS assay (AID 1671201); note: potency is the fitted concentration of half-maximal effect; nearly all actives have a fitted effect of over 50% in size
Method in brief: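 Compounds in DMSO were pin-transferred onto CYP3A4 enzyme-substrate mix and held 10 min at room temperature. NADPH regenerating solution started the reaction for 1 h; luciferin detection reagent stopped it, and luminescence was read after 20 min.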

[23] = target: Luciferin 4-monooxygenase (Photinus pyralis) (UniProt P08659); assay: qHTS assay to identify small molecule inhibitors of firefly luciferase (AID 1224835); note: % is set by controls: 0 for no effect and ±100 for the full control effect; nearly all actives have a fitted effect of over 25% in size
Method in brief: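 Inhibition of purified Photinus luciferase is measured by luminescence. Substrate levels (D-luciferin, ATP) sit at their KM values. Each compound is tested in a concentration series.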

[24] = qHTS assay to identify small molecule antagonists of the estrogen related receptor signaling pathway with the pleiotropic PPARgamma coactivator (PGC) from Tox21 10K library - cell viability counter screen (AID 1224840; active = well fitted cell-killing curve with a large enough effect in the repeat runs, not every such curve was filed as active; inconclusive = weak or mixed curves, or effect the other way; inactive = no such curve, though single readings can be large or run the other way; note: potency is the fitted concentration of half-maximal effect; nearly all actives have a fitted effect of over 40% in size)
Method in brief: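 Cell viability is measured by CellTiter-Fluor fluorescence in PGC/ERR cells that receive compounds after a 6-hour attachment period and are then incubated 17.5 hours at 37 C.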

[25] = qHTS assay to identify small molecule antagonists of the estrogen related receptor (ERR) signaling pathway from Tox21 library (AID 1224848)
Method in brief: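 Luciferase luminescence (ONE-Glo, 30 min room temperature) was the read-out. Cells of the NTP-supplied ERR line, 2,000 per well, were given 6 h at 37 C before compound addition in DMSO and 18 h exposure at 37 C.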

[26] = A CellTox Green Cytotoxicity Assay to monitor cytotoxicity in HepG2 cells - 24 hour (AID 1224878); note: % is set by controls: 0 for no effect and ±100 for the full control effect; nearly all actives have a fitted effect of over 45% in size
Method in brief: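 First, HepG2 cells (600/well) mixed with reagent were plated; second, after 5 h at 37 C they received compounds via pintool; third, fluorescence was measured at 0 h through 40 h at 8 h intervals.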

[27] = qHTS assay to identify small molecule antagonists of the estrogen receptor beta (ER-beta) signaling pathway - cell viability counter screen (AID 1259382); note: potency is the fitted concentration of half-maximal effect; nearly all actives have a fitted effect of over 55% in size
Method in brief: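 Viability is scored by CellTiter-Glo luminescence (30 min, room temperature) in ER-beta-UAS-bla HEK293T wells already read for reporter fluorescence. Compound exposure lasts 16 hr at 37C alongside 1nM 17-beta-estradiol in charcoal-stripped serum medium.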

[28] = qHTS assay to identify small molecule antagonists of the progesterone receptor (PR) signaling pathway - cell viability counter screen (AID 1346798)
Method in brief: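 HEK293T PR-UAS-bla, 2% charcoal-stripped FBS; 4 hr pre-plate; cpd + R5020, 16 h 37C; LiveBLAzer read first; then CellTiter-Glo 30 min RT, luminescence.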

[29] = qHTS assay to identify small molecule agonists of the progesterone receptor (PR) signaling pathway - cell viability counter screen (AID 1346799; calls by dose curve; note: potency is the fitted concentration of half-maximal effect; nearly all actives have a fitted effect of over 45% in size)
Method in brief: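 Luminescence from CellTiter-Glo, added after the beta-lactamase FRET read in the same wells, gave cytotoxicity in PR-UAS-bla HEK293T cells treated with compounds for 16 hr at 37C.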

[30] = Human pregnane X receptor (PXR) small molecule agonists, qHTS cell viability counter screen (AID 1346977)
Method in brief: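 PXR-Luc HepG2, 2,000 cells/well, 5% charcoal-stripped FBS; 5hr settle; cpd 24hr, 37C/5% CO2; CellTiter-Fluor at 23hr, read 1hr later (fluorescence).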

[31] = target: Cytochrome P450 2C9 (Homo sapiens) (UniProt P11712); assay: Cytochrome P450 Family 2 Subfamily C Member 9 (CYP2C9) small molecule antagonists: luciferase reporter qHTS assay (AID 1671198)
Method in brief: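 Enzyme-substrate mix preincubated with compound 10 min at room temperature; reaction started with NADPH regeneration solution, 1 h 37C. Luminescent luciferin product read after 20 min detection reagent.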
Tags give direction and shape of the fitted curve or compound fluorescence and quenching.

Chain of UniProt P06401 (P06401 whole entry, looked up): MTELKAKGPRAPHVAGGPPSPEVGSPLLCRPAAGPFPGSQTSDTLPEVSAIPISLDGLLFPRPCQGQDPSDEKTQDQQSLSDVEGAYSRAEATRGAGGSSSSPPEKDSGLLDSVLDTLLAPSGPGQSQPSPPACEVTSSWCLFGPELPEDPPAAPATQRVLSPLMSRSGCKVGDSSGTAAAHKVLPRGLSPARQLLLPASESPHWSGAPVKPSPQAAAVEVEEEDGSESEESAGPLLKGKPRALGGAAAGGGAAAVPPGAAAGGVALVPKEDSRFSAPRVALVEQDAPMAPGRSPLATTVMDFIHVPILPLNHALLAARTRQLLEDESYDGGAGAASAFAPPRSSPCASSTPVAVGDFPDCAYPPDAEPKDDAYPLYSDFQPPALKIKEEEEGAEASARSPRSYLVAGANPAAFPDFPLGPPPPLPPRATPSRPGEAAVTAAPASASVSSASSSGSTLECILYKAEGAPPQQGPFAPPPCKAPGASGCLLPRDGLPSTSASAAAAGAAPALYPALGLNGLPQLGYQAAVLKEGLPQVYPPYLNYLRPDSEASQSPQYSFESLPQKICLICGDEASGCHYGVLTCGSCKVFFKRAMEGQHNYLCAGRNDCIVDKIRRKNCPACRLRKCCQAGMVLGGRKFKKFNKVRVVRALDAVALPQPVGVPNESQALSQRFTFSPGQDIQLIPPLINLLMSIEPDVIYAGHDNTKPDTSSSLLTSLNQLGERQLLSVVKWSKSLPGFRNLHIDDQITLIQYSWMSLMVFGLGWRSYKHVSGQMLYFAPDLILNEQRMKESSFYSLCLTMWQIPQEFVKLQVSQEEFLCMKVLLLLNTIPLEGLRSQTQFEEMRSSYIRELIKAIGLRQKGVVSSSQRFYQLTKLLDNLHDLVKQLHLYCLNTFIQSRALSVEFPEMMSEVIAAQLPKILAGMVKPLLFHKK
Chain of UniProt P08659 (P08659 whole entry, looked up): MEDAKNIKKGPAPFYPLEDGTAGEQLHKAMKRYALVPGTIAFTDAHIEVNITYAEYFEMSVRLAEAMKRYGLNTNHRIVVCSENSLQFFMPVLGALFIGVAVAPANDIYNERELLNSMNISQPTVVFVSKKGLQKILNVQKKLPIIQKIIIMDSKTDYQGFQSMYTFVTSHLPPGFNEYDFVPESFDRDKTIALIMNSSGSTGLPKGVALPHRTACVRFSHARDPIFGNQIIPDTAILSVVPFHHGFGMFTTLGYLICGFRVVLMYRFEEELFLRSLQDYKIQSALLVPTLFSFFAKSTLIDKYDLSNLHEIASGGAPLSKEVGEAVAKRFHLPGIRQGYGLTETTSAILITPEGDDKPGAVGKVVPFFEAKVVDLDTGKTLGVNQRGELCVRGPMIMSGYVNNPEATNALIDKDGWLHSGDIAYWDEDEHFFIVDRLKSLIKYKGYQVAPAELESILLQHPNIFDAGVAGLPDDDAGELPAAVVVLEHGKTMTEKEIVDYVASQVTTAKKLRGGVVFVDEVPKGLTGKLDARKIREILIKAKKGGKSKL
Chain of UniProt P34981 (P34981 whole entry, looked up): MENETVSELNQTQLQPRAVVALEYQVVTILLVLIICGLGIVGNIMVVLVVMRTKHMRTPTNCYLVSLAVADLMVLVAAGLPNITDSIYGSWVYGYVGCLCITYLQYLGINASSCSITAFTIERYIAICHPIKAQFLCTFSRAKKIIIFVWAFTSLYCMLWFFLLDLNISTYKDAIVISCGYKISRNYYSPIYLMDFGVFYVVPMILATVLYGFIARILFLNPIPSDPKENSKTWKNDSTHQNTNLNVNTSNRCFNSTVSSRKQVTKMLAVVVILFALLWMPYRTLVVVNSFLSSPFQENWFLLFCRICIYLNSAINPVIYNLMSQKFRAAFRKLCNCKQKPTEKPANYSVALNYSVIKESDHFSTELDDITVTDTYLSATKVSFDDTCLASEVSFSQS
Chain of UniProt P16473 (P16473 whole entry, looked up): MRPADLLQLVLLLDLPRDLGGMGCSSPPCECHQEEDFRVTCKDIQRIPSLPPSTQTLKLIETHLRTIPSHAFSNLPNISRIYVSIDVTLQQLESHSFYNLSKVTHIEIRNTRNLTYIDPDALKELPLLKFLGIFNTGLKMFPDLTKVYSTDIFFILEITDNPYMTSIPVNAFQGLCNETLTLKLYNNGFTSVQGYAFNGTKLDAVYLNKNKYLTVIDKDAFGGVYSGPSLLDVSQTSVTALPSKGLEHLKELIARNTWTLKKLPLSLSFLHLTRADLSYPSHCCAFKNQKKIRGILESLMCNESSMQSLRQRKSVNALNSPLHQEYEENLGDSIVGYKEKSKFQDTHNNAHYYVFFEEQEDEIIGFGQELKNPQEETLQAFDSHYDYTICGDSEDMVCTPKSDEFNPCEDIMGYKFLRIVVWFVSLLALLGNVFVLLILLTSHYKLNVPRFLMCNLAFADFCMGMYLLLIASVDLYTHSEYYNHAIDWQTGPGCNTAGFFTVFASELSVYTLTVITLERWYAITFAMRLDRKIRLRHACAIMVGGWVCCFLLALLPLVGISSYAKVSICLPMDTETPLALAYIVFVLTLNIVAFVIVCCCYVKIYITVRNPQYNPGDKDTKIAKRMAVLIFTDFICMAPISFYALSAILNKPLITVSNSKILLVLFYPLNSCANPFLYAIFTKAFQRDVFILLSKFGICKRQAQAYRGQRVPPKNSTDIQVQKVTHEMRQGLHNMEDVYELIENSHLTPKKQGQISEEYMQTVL
Chain of UniProt P08684 (P08684 whole entry, looked up): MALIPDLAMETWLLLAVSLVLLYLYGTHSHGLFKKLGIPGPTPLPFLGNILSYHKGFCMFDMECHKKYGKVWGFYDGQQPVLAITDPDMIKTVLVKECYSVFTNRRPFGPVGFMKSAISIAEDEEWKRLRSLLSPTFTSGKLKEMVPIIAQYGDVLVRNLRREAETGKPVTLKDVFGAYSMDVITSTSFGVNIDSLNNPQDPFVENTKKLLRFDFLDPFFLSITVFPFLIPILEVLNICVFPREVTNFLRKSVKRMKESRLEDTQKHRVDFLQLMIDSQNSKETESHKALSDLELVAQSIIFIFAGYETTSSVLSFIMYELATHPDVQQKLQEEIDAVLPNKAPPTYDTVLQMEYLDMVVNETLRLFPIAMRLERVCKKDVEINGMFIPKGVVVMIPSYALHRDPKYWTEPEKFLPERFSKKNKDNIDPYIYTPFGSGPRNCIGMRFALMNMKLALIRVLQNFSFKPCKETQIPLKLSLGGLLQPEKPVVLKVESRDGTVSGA
Chain of UniProt P11473 (P11473 whole entry, looked up): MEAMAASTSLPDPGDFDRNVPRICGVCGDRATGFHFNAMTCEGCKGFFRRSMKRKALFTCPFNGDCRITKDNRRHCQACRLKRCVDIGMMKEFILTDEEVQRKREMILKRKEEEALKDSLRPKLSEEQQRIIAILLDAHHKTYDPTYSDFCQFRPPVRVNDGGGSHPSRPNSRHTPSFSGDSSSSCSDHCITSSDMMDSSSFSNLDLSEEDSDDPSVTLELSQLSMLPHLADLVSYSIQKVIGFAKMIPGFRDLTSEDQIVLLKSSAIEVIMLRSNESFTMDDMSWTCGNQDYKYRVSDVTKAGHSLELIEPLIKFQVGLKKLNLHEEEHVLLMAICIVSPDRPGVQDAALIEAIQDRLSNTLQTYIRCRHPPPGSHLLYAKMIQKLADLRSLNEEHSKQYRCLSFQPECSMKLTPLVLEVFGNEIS
Chain of UniProt P11712 (P11712 whole entry, looked up): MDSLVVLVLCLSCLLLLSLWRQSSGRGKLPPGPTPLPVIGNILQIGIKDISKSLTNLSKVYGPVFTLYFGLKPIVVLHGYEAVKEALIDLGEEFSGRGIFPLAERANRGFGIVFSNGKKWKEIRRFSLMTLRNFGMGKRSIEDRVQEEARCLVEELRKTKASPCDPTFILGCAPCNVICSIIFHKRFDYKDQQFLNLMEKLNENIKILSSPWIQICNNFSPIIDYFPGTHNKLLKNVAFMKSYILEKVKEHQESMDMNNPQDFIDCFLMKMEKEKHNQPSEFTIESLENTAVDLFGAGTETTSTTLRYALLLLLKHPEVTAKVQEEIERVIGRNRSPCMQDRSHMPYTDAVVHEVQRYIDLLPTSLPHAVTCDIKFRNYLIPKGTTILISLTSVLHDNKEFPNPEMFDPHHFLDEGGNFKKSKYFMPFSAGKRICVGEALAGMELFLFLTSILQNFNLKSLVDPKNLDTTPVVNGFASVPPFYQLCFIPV
Chain of UniProt P33261 (P33261 whole entry, looked up): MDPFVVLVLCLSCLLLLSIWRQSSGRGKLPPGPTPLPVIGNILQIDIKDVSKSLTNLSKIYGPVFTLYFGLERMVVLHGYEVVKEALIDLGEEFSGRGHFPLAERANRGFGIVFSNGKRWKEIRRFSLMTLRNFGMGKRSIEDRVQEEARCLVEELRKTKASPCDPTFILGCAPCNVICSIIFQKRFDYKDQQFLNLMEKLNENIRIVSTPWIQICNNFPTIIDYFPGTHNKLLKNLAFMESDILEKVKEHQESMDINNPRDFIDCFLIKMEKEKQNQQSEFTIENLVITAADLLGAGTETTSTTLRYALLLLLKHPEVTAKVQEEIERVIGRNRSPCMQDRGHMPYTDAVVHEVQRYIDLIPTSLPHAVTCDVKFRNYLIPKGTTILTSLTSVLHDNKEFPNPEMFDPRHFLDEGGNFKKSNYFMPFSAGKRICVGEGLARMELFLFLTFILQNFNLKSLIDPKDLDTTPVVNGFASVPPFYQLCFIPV

COCCOC[C@H](CC1(C(=O)NC2CCC(C(=O)O)CC2)CCCC1)C(=O)Oc1ccc2c(c1)CCC2 (stereo not given in full)
inconclusive: activity change, negative = cytotoxic [2] -37.1% [cytotoxic] | Potency [4] 48.6 µM [cytotoxic, partial curve] | Potency [6] 30.6 µM [rising, partial curve] | activity change, negative = inhibition [7] 21.2% | Potency [8] 43.3 µM [cytotoxic, partial curve] | Potency [9] 48.6 µM [activator, partial curve] | Potency [12] 27.3 µM [cytotoxic, partial curve] | Potency [13] 27.3 µM [cytotoxic, partial curve] | Potency [14] 34.4 µM [cytotoxic, partial curve] | Potency [15] 27.3 µM [cytotoxic, partial curve] | Potency [17] 0.0019 µM [inhibitor, full curve] | activity, negative = inhibition [18] -10.6% | Potency [20] 68.6 µM [cytotoxic, partial curve] | Potency [22] 39.9 µM [inhibitor]
inactive: Potency [1] | Potency [3] | Potency [5] | Potency [10] | Potency [11] | Potency [16] | Potency [21]
active: Potency [19] 54.5 µM

O=c1[nH]cccc1O
active: Potency [25] 19.3 µM
inconclusive: Potency [8] 17.2 µM [cytotoxic, full curve] | Potency [24] 30.6 µM [cytotoxic, full curve] | Potency [27] 5.45 µM [cytotoxic, full curve] | activity change, negative = inhibition [16] -35.1% | Potency [28] 15.4 µM [cytotoxic, full curve] | Potency [29] 5.45 µM [cytotoxic, full curve] | Potency [31] 7.96 µM [inhibitor, full curve]
inactive: Potency [23] | Potency [26] | Potency [12] | Potency [14] | Potency [30]
